PubChem BioAssay AID624296 (National Center for Advancing Translational Sciences (NCATS), 2012)
In all, about 350,000 compounds went through this assay and about 9,900 (2.8%) were called active. This list was built around the results that the source calls inconclusive (neither active nor inactive); the mix of calls is not that of the screen. Calls follow the shape of the dose curve; as a rule, active = well fitted activation curve with a large enough effect; inconclusive = small, poorly fitted or top-dose-only effect; inactive = no such curve, though single readings can be large or run the other way. Potencies of inconclusive entries are left out as doubtful fits.

assay: A quantitative high throughput screen for small molecules that induce DNA re-replication in MCF 10a normal breast cells.; also: nearly all actives have a fitted effect of over 50% in size; details: MCF 10A DNA re-replication, Hoechst nuclear intensity, 48 h; series mostly up to 46.1 µM
Potency is read from the fitted curve at half-maximal effect; tags tell the direction and shape of the fitted curve.

SMILES | Potency
COc1ccc(CCNc2c(C)c(C)nc3ncnn23)cc1 | inconclusive [activator, partial curve, poor fit]
CCOc1ccccc1N1C(=O)CC(Sc2ncccc2C(=O)O)C1=O (stereo not given) | inconclusive [activator, single point]
CCCn1c(SCC(=O)NCCc2ccccc2)nnc1-c1ccccn1 | inactive
CC(CS(=O)(=O)c1ccccc1[N+](=O)[O-])N1CCOCC1 (stereo not given) | inactive
CCOc1cccc2sc(=NC(=O)c3ccco3)n(CC(=O)OC)c12 | inactive
CC(=O)c1sc(NC(=O)c2ccc3c(c2)OCO3)nc1C | inactive
CC(CCC(=O)NN)C1CCC2C3CCC4CC(O)CCC4(C)C3CCC12C (stereo not given) | inconclusive [activator, single point]
CC(N=C1NS(=O)(=O)c2ccccc21)C(=O)NCc1ccncc1 (stereo not given) | inconclusive [activator, full curve, poor fit]
Cn1c(=O)c2[nH]c(C(O)c3ccc(Cl)cc3)nc2n(C)c1=O (stereo not given) | inactive
CCCCC(=NCCc1c(C)[nH]c2ccc(OC)cc12)C1=C(O)CC(c2ccccc2)CC1=O (stereo not given) | active: 2.59 µM
COc1ccc(-c2ccnc3nc(N4CCN(c5ccccc5)CC4)nn23)cc1 | inconclusive [activator, partial curve, poor fit]
Cc1cccc(OCC(=O)N(Cc2ccccc2)c2c(N)n(Cc3ccccc3)c(=O)[nH]c2=O)c1 | inconclusive [activator, single point]
COc1ccc(C(=O)Nc2cccc(S(C)(=O)=O)c2)cc1 | inactive
CCCSc1nc2c(c(=O)n(C)c(=O)n2C)n1Cc1ccc(C)cc1 | inconclusive [activator, partial curve]
CC(=O)Nc1ccc(N=Cc2c(O)c3ccccc3oc2=O)cc1 | inactive
COCCCNCCOCCSc1ccc(Cl)cc1 | inconclusive [activator, partial curve, poor fit]
CCCC(=O)NC(c1cccs1)c1cc([N+](=O)[O-])c2cccnc2c1O (stereo not given) | inconclusive [activator, partial curve]
COc1ccc(Cn2nnnc2CN2CCC(c3nc4ccccc4s3)CC2)cc1 | inconclusive [activator, partial curve, poor fit]
Cc1cccc(NS(=O)(=O)c2ccc3c(c2)Cc2cc(S(=O)(=O)Nc4cccc(C)c4C)ccc2-3)c1C | inconclusive [activator, partial curve, poor fit]
COC(=O)c1c(N2C(=O)CC(Sc3ncccc3C(=O)O)C2=O)sc(C)c1C (stereo not given) | inconclusive [activator, single point]
Clc1cccc(CNc2nnnn2-c2ccccc2)c1 | inconclusive [activator, partial curve, poor fit]
CCc1ccccc1NC(=O)COC(=O)c1cccs1 | inconclusive [activator, single point]
COCc1ccc(CN2CCCC(C(=O)Nc3ccc(-c4cccc(OC)c4)cc3)C2)o1 (stereo not given) | inconclusive [activator, single point]

SMILES | Potency
O=C(NN1C(=O)c2ccccc2NC1c1ccoc1)c1ccc([N+](=O)[O-])cc1 (stereo not given) | inactive
CCOC(=O)N1CCN(C(=O)c2ccc3c(Cl)c4c(nc3c2)CCCC4)CC1 | inconclusive [activator, single point]
C=CCn1c(SCC(=O)N2CCc3ccccc3C2)nc2sc(C)c(C)c2c1=O | inconclusive [activator, full curve, poor fit]
c1ccc(-c2ccc3[nH]ccc3c2)cc1 | inconclusive [activator, full curve, poor fit]
CC(NC(=O)COC(=O)CSc1ccc(F)cc1)c1ccc(F)cc1 (stereo not given) | inactive
CCCOc1ccc(C(=O)c2ccccc2C(=O)OC2CCOC2=O)cc1OCCC (stereo not given) | inconclusive [activator, single point]
CC(=O)Nc1ccc(NS(=O)(=O)c2ccc(Cl)c(C(=O)O)c2)cc1 | inconclusive [activator, partial curve, poor fit]
C/C(CCc1ccccc1)=N\NC(=O)c1ccccc1[N+](=O)[O-] | inactive
NC(=O)c1nsc(C(=O)N(c2ccccc2)C(C(=O)NC2CCCCC2)c2ccc(O)cc2)c1N (stereo not given) | inactive
CC(=O)Nc1ccc(OCC(O)Cn2c(C)nc3ccccc32)cc1 (stereo not given) | inactive
Cc1cc(C)c(NC2=CC(=O)CC(C)(C)C2)c(C#N)c1 | inactive
Cc1ccc(C)c(NC(=O)CCN2C(=O)c3ccccc3C2=O)c1 | inactive
Cc1ccc(S(=O)(=O)Nc2nc3ccccc3nc2N2CCc3ccccc3C2)cc1 | inconclusive [activator, full curve, poor fit]
O=C(c1ccc2[nH]c3c(c2c1)CCCC3)N1CCN(c2ccc(F)cc2)CC1 | inconclusive [activator, partial curve, poor fit]
COc1ccc(CNC(=O)COC(=O)c2n[nH]c3ccccc23)cc1OC | inconclusive [activator, single point]
CC1CCN(C(=O)/C(=C/c2ccccc2Cl)c2ccccc2)CC1 | active: 16.4 µM
Cc1ccc(O)c(N)c1 | inconclusive [activator, single point]
O=C(COC(=O)c1cccc(S(=O)(=O)NCc2ccccc2)c1)NCC1CCCO1 (stereo not given) | inactive
COc1ccc(S(=O)(=O)N2CCCCCC2)cc1C(=O)N(C)Cc1ccc(C(C)(C)C)cc1 | active: 18.4 µM
CCOC(=O)c1csc(NC(=O)c2ccc(C#N)cc2)n1 | inconclusive [activator, partial curve, poor fit]
COc1ccccc1NC(=S)N(Cc1cccs1)C1CCCC1 | inactive
COc1cccc(/C=N/Nc2nc3ccccc3n3cnnc23)c1O | inconclusive [activator, single point]
